Laboratory results reported in PubChem BioAssay AID1240 (Sanford-Burnham Center for Chemical Genomics, 2008).
Out of some 50,000 compounds screened, about 800 (1.6%) showed an effect of 50% or more. This is one part of the list.

Each compound was assayed against Bcl-2-like protein 10 (Homo sapiens) (UniProt Q9HD36) (assay: TR3 peptide-Bcl-B binding displacers, biochemical primary FP assay, phenotype converters (AID 1240;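 note: 0% = Bcl-B with tracer peptide and DMSO and 100% = tracer peptide lacking Bcl-B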)). Settings: GST-Bcl-B / FITC-TR3 peptide fluorescence polarization; stronger effect = higher value; compound at 3.75 mg/L.
Chain of UniProt Q9HD36 (Q9HD36 whole entry, looked up): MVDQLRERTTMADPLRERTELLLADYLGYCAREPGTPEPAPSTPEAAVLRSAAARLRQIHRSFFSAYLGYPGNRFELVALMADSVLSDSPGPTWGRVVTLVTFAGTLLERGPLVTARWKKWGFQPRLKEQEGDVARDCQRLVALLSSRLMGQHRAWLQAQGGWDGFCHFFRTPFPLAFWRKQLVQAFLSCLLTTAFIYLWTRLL
`COc1cc(C=C2C(=O)NC(=O)NC2=O)ccc1OCc1cccc(F)c1` was tested, and the displacement was 32.7%.
`COC(=O)c1cc(NC(=O)COc2cc(C)c(Cl)c(C)c2)cc(C(=O)OC)c1` showed a displacement of 5.1%.
Compound `CCC(=O)Nc1cccc2c1C(=O)c1ccccc1C2=O` has a displacement of 11.2%.
With `COc1ccc(/C=C/c2nc3sc4c(c3c(=O)o2)CCCC4)cc1` the displacement was 16.8%.
For `COc1ccc(OC)c(NC(=S)Nc2ccc(F)cc2)c1`, the displacement was -3.2%.
`CCOC(=O)N1CCN(c2cc(C)c([N+](=O)[O-])cc2F)CC1` showed a displacement of -18.2%.
With `CCC(C(=O)NCc1ccco1)c1ccccc1` (stereo unspecified) the displacement was -0.7%.
`O=S(=O)(NCc1ccccc1)c1cccc(S(=O)(=O)c2ccccc2)c1` gave a displacement of -13.4%.
`C/C(=N\OCC(=O)N=Nc1c(O)n(CN2CCN(C)CC2)c2ccccc12)c1cccs1` gave a displacement of -6.2%.
Work on `O=C1C(=O)c2ccccc2/C1=C\c1cccc2ccccc12` yielded a displacement of 11.8%.
`COc1ccc(-c2nnc3ccc(C(F)(F)F)cn23)c(OC)c1` showed a displacement of -6.2%.
Work on `CCN(CC)c1ccc(/C=C(/NC(=O)c2ccccc2Br)C(=O)NCCCC(=O)O)cc1` yielded a displacement of -2.6%.
Work on `Cc1onc(-c2c(Cl)cccc2Cl)c1C(=O)NC1CCCC1` yielded a displacement of 1.5%.
In the case of `O=C(NCc1ccco1)c1nn2c(c1Cl)NC(c1cccs1)CC2C(F)(F)F` (stereo unspecified), the displacement is reported as 4.5%.
`CCOC(=O)c1c(C)[nH]c(N=Nc2ccccc2C)c1C` gave a displacement of 5.1%.
`COc1ccc(OC)c(CN2CCN(Cc3ccc(Br)cc3)CC2)c1` gave a displacement of 0.4%.
With `COc1ccc(-c2cc(C(=O)NCCc3ccc(OC)c(OC)c3)c3ccccc3n2)c(OC)c1` the displacement was 2.6%.
For `CCOC(=O)c1c(-c2ccccc2)oc2cc(Br)c(OCC)cc12`, the displacement was 8%.
`CCN(CC)c1ccc(N2C(=O)/C(=C/c3ccc([N+](=O)[O-])cc3)SC2=S)cc1` showed a displacement of -3.3%.
With `COc1cc(C2NC(=S)NC(C)=C2C(=O)Nc2ccc(C)cc2)ccc1O` (stereo unspecified) the displacement was 2.8%.
Compound `COc1cc(/C=C/c2cc(C(F)(F)F)[nH]c(=O)n2)cc(OC)c1OC` has a displacement of 2.7%.
Work on `Cc1ccc([N+](=O)[O-])cc1N=Cc1ccc([N+](=O)[O-])o1` yielded a displacement of -0.3%.
`COCCCNCCOCCOc1cccc(OC)c1` showed a displacement of -8%.
`CCCC(=O)C1=C(N2CCCCC2)CC(C)(C)C(C(=O)OC)C1=O` (stereo unspecified) was tested, and the displacement was 0.8%.
In the case of `C=CCNC(=O)CN(c1ccc(OCC)cc1)S(=O)(=O)c1ccc(SC)cc1`, the displacement is reported as 0.6%.
Work on `Cc1cccc(C(=O)NNC2=C(C(=O)C(F)(F)F)CCC2)c1O` yielded a displacement of -12.1%.
Work on `OC1CC(c2ccccc2)NC(c2ccco2)C1` (stereo unspecified) yielded a displacement of 11.4%.
With `O=C(O)c1cccc(NC(=O)c2cc(S(=O)(=O)NCc3ccccc3)ccc2Cl)c1` the displacement was -7.6%.
For `CCOc1ccc(/C=C2/SC(=O)N(CNc3cccc(Br)c3)C2=O)cc1`, the displacement was 1.9%.
`COc1ccc(CCNC(=O)C2CC(=O)N(c3ccc(F)cc3)C2)cc1` (stereo unspecified) was tested, and the displacement was 6.2%.
Compound `CSc1cccc(NC(=O)CSc2nc3ccccc3s2)c1` has a displacement of 6.4%.
For `COc1ccc(C(=O)O/N=C2/C(=O)N(C)c3ccccc32)cc1OC`, the displacement was 15.7%.
`COc1ccc(/C=N/NS(=O)(=O)c2ccc(C(C)(C)C)cc2)c(OC)c1` showed a displacement of 7.1%.
In the case of `Brc1ccc(OCCCN2CCOCC2)cc1`, the displacement is reported as 8.9%.
In the case of `CCC1S/C(=N/N=C/c2ccc3c(c2)OCO3)NC1=O` (stereo unspecified), the displacement is reported as -13.8%.
In the case of `CN1CCN(c2nc(-c3ccccc3O)nc3ccccc23)CC1`, the displacement is reported as 15.1%.
`Cc1ccc(Sc2c(C)nn(C(=O)c3cccnc3)c2C)cc1` gave a displacement of -10.3%.
`Cc1ccccc1N(CC(=O)NCC(C)c1ccccc1)S(=O)(=O)c1ccccc1` (stereo unspecified) was tested, and the displacement was -8%.
For `COc1ccccc1N1CCN(C(=O)c2cnn3c2NC(c2ccc(Br)cc2)CC3C(F)(F)F)CC1` (stereo unspecified), the displacement was 9.1%.
`CC(C)OC(=O)c1c(-c2ccccc2)csc1NC(=O)CCC(=O)O` showed a displacement of 3.5%.
`O=C(/C=C\c1ccc([N+](=O)[O-])cc1)Nc1ccc(N2CCOCC2)cc1` gave a displacement of 6%.
Work on `C=CCNc1nc(-c2ccc(C)cc2C)cs1` yielded a displacement of -3.1%.
In the case of `CSc1ccc(-c2ncnn2-c2ccccc2Cl)cc1`, the displacement is reported as -10.1%.
Work on `Cc1ccc(N(CC(O)CN2CCOCC2)S(=O)(=O)c2ccccc2)cc1` (stereo unspecified) yielded a displacement of -2.5%.
In the case of `c1ccc(Oc2cccc(CN3CCN(C4CCCC4)CC3)c2)cc1`, the displacement is reported as -5.2%.
In the case of `Cc1ccc(N2C(=O)c3ccccc3NC2c2c(F)c(F)c(F)c(F)c2F)cc1` (stereo unspecified), the displacement is reported as 7.8%.
`Cc1cccc(C(=O)N/N=C/c2ccc(OCC(=O)N3CCCCC3)cc2)c1` gave a displacement of -7%.
With `CC(C)c1cccc(C(C)C)c1NC(=O)C(F)(F)F` the displacement was -1.3%.
With `Cc1c(C(c2cc(O)c(O)c(Br)c2)c2c(C)n(C)n(-c3ccccc3)c2=O)c(=O)n(-c2ccccc2)n1C` the displacement was 35.5%.
`O=C(O)c1cnn2c1NC(c1ccc3c(c1)OCO3)CC2C(F)(F)F` (stereo unspecified) showed a displacement of -2.8%.
`COc1cc(OC)c(C=Nc2cccc(C(N)=O)c2)cc1Br` gave a displacement of -7.2%.
`Cc1cc(OCC(=O)NCc2ccc3c(c2)OCO3)ccc1Br` was tested, and the displacement was -9.2%.
In the case of `COc1cc([N+](=O)[O-])ccc1NS(=O)(=O)c1ccc(F)cc1`, the displacement is reported as 14.5%.
Compound `Oc1ccc(/C=N/Nc2cc(N3CCCCC3)nc(N3CCCCC3)n2)c(O)c1` has a displacement of 3.2%.
Work on `CC(=O)COc1ccc2c(C)c(C)c(=O)oc2c1` yielded a displacement of 13.2%.
With `Cc1ccc(OC(=O)CCN2C(=O)c3ccccc3C2=O)cc1C` the displacement was -2.2%.
In the case of `C=CCSc1nc(N)c(C#N)c(-c2cccs2)c1C#N`, the displacement is reported as 3.6%.
`CCN1C(=O)/C(=C\c2ccc(-c3ccc(F)cc3)o2)SC1=S` gave a displacement of 0.7%.
With `CC(=O)NS(=O)(=O)c1ccc(NC(=O)CCc2ccccc2)cc1` the displacement was 7.9%.
Work on `C=CCN1C(=O)NC(=O)/C(=C/c2cc(OC)c(OC(C)=O)c(OC)c2)C1=O` yielded a displacement of 7.4%.
With `COc1cc(OC)c(C2NC(=S)NC(C)=C2C(=O)Nc2ccc(Cl)cc2)cc1OC` (stereo unspecified) the displacement was 9.6%.
`COc1ccc(OC)c(N(CC(=O)N/N=C/c2ccc(OC3CSC3)cc2)S(=O)(=O)c2ccccc2)c1` gave a displacement of 7.5%.
For `O=C(Cc1n[nH]c(=O)[nH]c1=O)N/N=C/c1ccc(C(F)(F)F)cc1`, the displacement was -4.6%.
Compound `COC(=O)c1ccc(/C=C/C(=O)c2cccs2)cc1` has a displacement of 2.9%.
Work on `CC(Oc1ccccc1)C(=O)N1CCN(c2ccc(F)cc2)CC1` (stereo unspecified) yielded a displacement of 0.6%.
With `O=C(Nc1ccc(F)c(Cl)c1)c1cnccn1` the displacement was 2.4%.
`CCN(Cc1ccccc1)S(=O)(=O)c1ccc([N+](=O)[O-])cc1` gave a displacement of -9.7%.
`O=C1/C(=C/c2ccc(Br)cc2)SC(=S)N1CCc1ccccc1` was tested, and the displacement was 7.1%.
Compound `COc1ccc(CCNC(=O)C2CCCC2)cc1OC` has a displacement of 40.3%.
With `COc1cc(OC)cc(C(=O)NC2CCCCCCC2)c1` the displacement was 1.7%.
`COc1ccc(/C=N/NC(=O)C2CC2)c(OC)c1OC` gave a displacement of 17.7%.
For `CCOc1ccc(N2C(=O)NC(=O)/C(=C\C3C(=O)N(c4ccccc4)N=C3C)C2=O)cc1` (stereo unspecified), the displacement was 6%.
In the case of `CC(=O)Nc1ccc2oc(-c3cccc(Cl)c3)nc2c1`, the displacement is reported as 15.2%.
`O=C(CCNc1cccc(C(F)(F)F)c1)c1ccc([N+](=O)[O-])cc1` was tested, and the displacement was -10.1%.
`Cc1ccc(OCC(=O)Nc2ccc(S(N)(=O)=O)cc2)c(C)c1` showed a displacement of 1.9%.
`O=C(NN1CCOCC1)c1ccc(Cl)cc1Cl` gave a displacement of 2.7%.
`CN(C)C(=S)S/C=C/C(=O)c1ccccc1` gave a displacement of -1.8%.
Compound `Cc1ccc2cccc(S(=O)(=O)c3ccc(C(F)(F)F)cc3[N+](=O)[O-])c2n1` has a displacement of -2.5%.
Work on `CC(C)OC(=O)c1c(-c2ccc(Cl)cc2Cl)csc1N` yielded a displacement of -0.6%.
With `O=[N+]([O-])c1ccc(-c2ccc(I)cc2)cc1` the displacement was 5.1%.
With `CC1CCN(CCOCCOc2ccccc2F)CC1` the displacement was -3.8%.
For `COc1ccc(/C=C2/SC(=S)N(c3cccc(Cl)c3)C2=O)cc1`, the displacement was 44.2%.
Work on `O=C(CCC1CCCC1)Nc1ccc([N+](=O)[O-])cc1` yielded a displacement of -6.4%.
Compound `c1cncc(CN2CCN(Cc3ccc4ccccc4c3)CC2)c1` has a displacement of -10.9%.
For `CCCCOc1ccc(C=O)cc1OCC`, the displacement was -7.3%.
`COc1ccc(NC(=O)COc2ccc(OC)cc2)cc1` showed a displacement of -2.8%.
In the case of `COc1ccc(-c2nc3sc(C)c(C)c3c(=O)[nH]2)cc1C`, the displacement is reported as -8%.
`CC(C)c1ccc(NC(=O)CN(c2ccc(Oc3ccccc3)cc2)S(C)(=O)=O)cc1` was tested, and the displacement was 0%.
`COC(=O)c1c(C)oc2ccc(OC(C)=O)cc12` showed a displacement of 14.1%.
Work on `Cc1ccc2c(c1)c(-c1ccccc1)nc1nnnn12` yielded a displacement of 3%.
`O=C(Nc1ccccc1)Nc1nnc(Cc2ccc([N+](=O)[O-])cc2)s1` gave a displacement of -0.3%.
In the case of `O=c1[nH]c(/C=C/c2ccc(OCc3ccccc3)cc2)c([N+](=O)[O-])c(=O)[nH]1`, the displacement is reported as 114%.
Compound `CC(C)CSc1nc(O)c(C(c2ccccc2)c2ccccc2)c(=O)[nH]1` has a displacement of -0.7%.
Work on `CS(=O)(=O)/N=C(\N)Nc1nc2ccccc2o1` yielded a displacement of -3.9%.
For `CCCOc1cccc(C2C3=C(CC(C)(C)CC3=O)Nc3ccccc3N2C(=O)CC)c1` (stereo unspecified), the displacement was -16.7%.
`COC(=O)C1=C(C)NC2=C(C(=O)c3ccccc32)C1c1ccc(OCc2ccc(F)cc2)c(Cl)c1` (stereo unspecified) was tested, and the displacement was -0.8%.
`CCOc1ccc2c(c1)C(C)=CC(C)(C)N2C(=O)Nc1ccccc1` showed a displacement of 17.4%.
Compound `CCOC(=O)C1=C(O)/C(=C\c2ccccc2OC)N=C1C` has a displacement of 3.3%.
In the case of `Nc1nnc(SCC(=O)Nc2ccccc2-c2ccccc2)s1`, the displacement is reported as -13.5%.
`COc1ccc(C(=O)NC(NCc2ccccc2)C(Cl)(Cl)Cl)cc1OC` (stereo unspecified) showed a displacement of 3.7%.
`Cc1cc(C)c2oc(-c3ccc(C)c(NC(=O)c4ccc(Br)o4)c3)nc2c1` showed a displacement of -3.8%.
`COc1cc(C(=O)Nc2ccc(Cc3ccncc3)cc2)cc(OC)c1OC` showed a displacement of 14.8%.
Compound `CCOC(=O)c1c(NC(=O)C2CC2)sc(C(=O)Nc2ccccc2)c1C` has a displacement of -4.2%.
In the case of `CCOc1cc(C(=S)N2CCOCC2)ccc1OCc1ccccc1`, the displacement is reported as 0.7%.
`COc1ccccc1NC(=O)c1cc([N+](=O)[O-])ccc1Br` was tested, and the displacement was 7.8%.
For `O=C(CSc1ccccn1)Nc1ccccc1-c1ccccc1`, the displacement was 2.3%.
`COc1ccc(C/C(N)=N/OC(=O)c2cccs2)cc1` gave a displacement of 8.1%.
Compound `O=C(NC(NC(=S)Nc1cc(Cl)ccc1Cl)C(Cl)(Cl)Cl)c1ccccc1Cl` (stereo unspecified) has a displacement of 12.7%.
`Cc1ccccc1CN1CCN(C(=O)c2cccc(Cl)c2)CC1` showed a displacement of 0.5%.
`COC(=O)CN(c1ccc(Cl)cc1C)S(=O)(=O)c1ccc(C)cc1` was tested, and the displacement was -3%.
`COc1cc(OC)c(OC)cc1CN1CCN(C(=O)c2ccc(OC)c(OC)c2)CC1` was tested, and the displacement was -3.3%.
